Among all 310,000 compounds or so, about 18,000 (5.8%) were called active. The shares of active, inactive and inconclusive entries below differ from those in the screen. Calls follow the shape of the dose curve; as a rule, active = well fitted inhibition curve with a large enough effect; inconclusive = small, poorly fitted or top-dose-only effect, or another doubt; inactive = no such curve, though single readings can be large or run the other way. Potencies of inconclusive entries are left out as doubtful fits.
Experiment: Primary qHTS for delayed death inhibitors of the malarial parasite plastid, 48 hour incubation
Conditions: P. falciparum luciferase growth in erythrocytes; series mostly up to 28.7 µM; activity change, negative = inhibition: at the top concentration
Summary of the method: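 Compounds are pin-transferred into medium, infected erythrocytes (2% hematocrit, 0.1% parasitemia final) are added, and plates sit one parasite generation at 37 C in 5% CO2. Detection reagent is then added and luminescence measured.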
In the case of `CC(=O)Nc1ccc(Nc2ccccc2)cc1`, the “activity change, negative = inhibition” value is reported as inactive: -16.2%. With `O=C(Nc1nnc(COc2ccc(Cl)cc2)s1)c1cccs1` the Potency was inconclusive [inhibitor, single point]. In the case of `Cc1[nH]c2ccccc2c1/C=N/NC(=O)c1cc(-c2ccccc2)n[nH]1`, the Potency is reported as inconclusive [inhibitor, partial curve, poor fit]. With `CCCN(C(=O)c1cccc(S(=O)(=O)N2CCN(C)CC2)c1)c1c(N)n(Cc2ccccc2)c(=O)[nH]c1=O` the Potency was inconclusive [inhibitor, partial curve, poor fit]. For `COc1ccc(Nc2cc(Nc3cc(OC)c(OC)c(OC)c3)ncn2)cc1`, the Potency was inconclusive [inhibitor, partial curve]. With `C=CCSC1=N/C(=C\c2ccc(C(=O)O)cc2)C(=O)S1` the “activity change, negative = inhibition” value was inactive: 11.7%. With `NS(=O)(=O)c1ccc(N/N=C2/CCCCC2C2CCCCC2)c([N+](=O)[O-])c1` (stereo not drawn) the Potency was inconclusive [inhibitor, single point]. For `O=C(NCCC(=O)N1CCN(c2ccccc2O)CC1)c1ccc(Br)cc1`, the Potency was inconclusive [inhibitor, single point]. For `COC(=O)CSc1nnc2n1C(C)(C)Cc1ccccc1-2`, the “activity change, negative = inhibition” value was inactive: 1.45%. For `O=C1/C(=C\c2cccc(O)c2O)SC(=S)N1Cc1ccccc1`, the Potency was inconclusive [inhibitor, single point]. For `O=C1C(C=Nc2ccc(F)cc2)=C(O)c2ccccc21`, the “activity change, negative = inhibition” value was inactive: 90%. In the case of `COc1ccc(CNCCc2ccccc2F)c(OC)c1C`, the Potency is reported as active: 10.4 µM. In the case of `O=S(=O)(Nc1cc(Cl)ccc1N1CCCCC1)c1cccs1`, the Potency is reported as inconclusive [inhibitor, single point]. For `COc1ccc(S(=O)(=O)N/N=c2\oc3c(OC)cccc3cc2S(=O)(=O)c2ccc(C)cc2)cc1OC`, the Potency was inconclusive [inhibitor, single point]. For `CCOC(=O)c1cc(C(=O)OCC)cc(-n2c(C)cc(C(=O)CN3CCOCC3)c2C)c1`, the Potency was inconclusive [inhibitor, single point]. In the case of `CN1CCN(c2ccc(NC(=O)COc3cccc4ccccc34)cc2)CC1`, the Potency is reported as inconclusive [inhibitor, partial curve]. For `CCOC(=O)C1CCCN(C(=O)CCn2nc(-c3ccccc3)ccc2=O)C1` (stereo not drawn), the “activity change, negative = inhibition” value was inactive: 40.2%. For `Cc1ccc(-n2c(CNc3ccc(C)c(Cl)c3)n[nH]c2=S)cc1`, the Potency was inconclusive [inhibitor, partial curve]. With `COC(=O)c1ccc(C23CC4(C2)[C@H](CN(C)[C@@H]4c2ccccc2)C3c2ccc(C(F)(F)F)cc2)cc1` (stereo partly drawn) the Potency was active: 10.4 µM. For `Cc1ccc(N2C(=O)C3C(c4ccccc4)N4CCCN4C3(C)C2=O)cc1` (stereo not drawn), the Potency was inconclusive [inhibitor, partial curve, poor fit]. For `COc1cc(SC#N)ccc1N=Cc1c(C)[nH]n(-c2ccc(C)cc2)c1=O`, the Potency was active: 13.1 µM. In the case of `CCOc1ccc(OCCC(=O)OCC(=O)NC2CCCCC2)cc1`, the “activity change, negative = inhibition” value is reported as inactive: 20.7%. With `COc1cc2cc(CN(CCCN3CCOCC3)C(=O)Nc3ccc(F)cc3)c(=O)[nH]c2cc1OC` the Potency was active: 13.1 µM. In the case of `CCC(=O)NCCc1nc2cc(NC(=O)c3ccc(OC)cc3)ccc2n1C`, the “activity change, negative = inhibition” value is reported as inactive: 119%. For `COc1ccc(C(C(=O)NC(C)(C)C)N(Cc2ccccc2)C(=O)CCC(=O)Nc2cc(C)on2)cc1` (stereo not drawn), the Potency was inconclusive [inhibitor, partial curve]. With `Cc1cc2nc(Sc3c([N+](=O)[O-])nc(C)n3Cc3ccccc3)[nH]c2cc1C` the Potency was active: 10.4 µM. For `O=C(O)c1ccccc1-c1ccccc1C(=O)NCCc1ccccc1`, the Potency was inconclusive [inhibitor, partial curve, poor fit]. In the case of `C/C(=N/NS(=O)(=O)c1ccc(Br)cc1)c1c[nH]c2ccccc12`, the “activity change, negative = inhibition” value is reported as inactive: 20%. In the case of `O=c1c2ccccc2n(CC(O)CN2CCOCC2)c2ccccc12` (stereo not drawn), the Potency is reported as inconclusive [inhibitor, partial curve, poor fit]. In the case of `CN(C)S(=O)(=O)Oc1ccccc1C(=O)Nc1cccc(C(F)(F)F)c1`, the Potency is reported as inconclusive [inhibitor, single point]. For `CCOc1ccc(/C=N/OCC(=O)NC(c2ccccc2)c2ccccc2)cc1`, the Potency was active: 7.38 µM. In the case of `CCN(C(=O)CSc1nc2cc(Cl)ccc2c(=O)n1Cc1ccco1)C1CCS(=O)(=O)C1` (stereo not drawn), the Potency is reported as inconclusive [inhibitor, single point]. With `COC(=O)c1nc(-c2ccc3c(n2)C(=O)C(N)=C(OC)C3=O)c(N)c(-c2ccc(OC)c(OC)c2O)c1C` the Potency was active: 0.0928 µM. With `CCc1ccc(/C=C2\Oc3cc(OC(=O)N4CCOCC4)ccc3C2=O)cc1` the Potency was inconclusive [inhibitor, partial curve, poor fit]. With `Cc1nonc1OCC(C)(COc1nonc1C)NC(=O)c1ccccc1` the Potency was inconclusive [inhibitor, partial curve, poor fit]. With `Cc1cc(O)cc2c(=O)c3ccccc3sc12` the Potency was inconclusive [inhibitor, single point]. For `Cc1ccc(/C=N/Nc2nc3ccccc3[nH]2)s1`, the Potency was inconclusive [inhibitor, full curve]. In the case of `COC(=O)c1cc2oc3ccccc3c2n1CC(=O)N1CCCc2ccccc21`, the Potency is reported as inconclusive [inhibitor, single point]. In the case of `CC(C)Cc1nnc(NC(=O)C2CSC3(C)CCC(=O)N23)s1` (stereo not drawn), the Potency is reported as inconclusive [inhibitor, partial curve, poor fit]. With `CCOCc1cnc(C)nc1NCC(=O)c1c(C)n(C)c2ccc(OC)cc12` the Potency was active: 7.38 µM. In the case of `COc1ccc(C(=O)Nc2ccc(C(=O)N3CCCCC3C)cc2)c(OC)c1OC` (stereo not drawn), the Potency is reported as inconclusive [inhibitor, single point]. With `Cc1cccc(NC(=O)C2CCCN2C(=O)OCc2ccccc2)c1` (stereo not drawn) the Potency was inconclusive [inhibitor, single point]. In the case of `COc1ccc(CNCC(O)COc2cccc3c2OC(C)(C)C3)cc1` (stereo not drawn), the Potency is reported as inconclusive [inhibitor, partial curve, poor fit].
% is scaled to controls: 0 for no effect and ±100 for the full control effect; potency is read from the fitted curve at half-maximal effect; tags tell the direction and shape of the fitted curve.
